From PMC4336329 (PLoS ONE, 2015)
The whole screen tested about 310,000 compounds, of which about 14,000 (4.5%) showed an effect of 50% or more. The effect is printed as a negative number. The list shows a part of the results.

What follows are compounds tested against human ether-à-go-go-related gene (hERG) potassium channel (human, UniProt Q12809) (assay: primary screen, population patch clamp on CHO cells stably expressing hERG).
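Also: peak tail current of the secondary pulse compared with the same well before compound.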

Chain of human ether-à-go-go-related gene (hERG) potassium channel (Q12809 whole entry, looked up): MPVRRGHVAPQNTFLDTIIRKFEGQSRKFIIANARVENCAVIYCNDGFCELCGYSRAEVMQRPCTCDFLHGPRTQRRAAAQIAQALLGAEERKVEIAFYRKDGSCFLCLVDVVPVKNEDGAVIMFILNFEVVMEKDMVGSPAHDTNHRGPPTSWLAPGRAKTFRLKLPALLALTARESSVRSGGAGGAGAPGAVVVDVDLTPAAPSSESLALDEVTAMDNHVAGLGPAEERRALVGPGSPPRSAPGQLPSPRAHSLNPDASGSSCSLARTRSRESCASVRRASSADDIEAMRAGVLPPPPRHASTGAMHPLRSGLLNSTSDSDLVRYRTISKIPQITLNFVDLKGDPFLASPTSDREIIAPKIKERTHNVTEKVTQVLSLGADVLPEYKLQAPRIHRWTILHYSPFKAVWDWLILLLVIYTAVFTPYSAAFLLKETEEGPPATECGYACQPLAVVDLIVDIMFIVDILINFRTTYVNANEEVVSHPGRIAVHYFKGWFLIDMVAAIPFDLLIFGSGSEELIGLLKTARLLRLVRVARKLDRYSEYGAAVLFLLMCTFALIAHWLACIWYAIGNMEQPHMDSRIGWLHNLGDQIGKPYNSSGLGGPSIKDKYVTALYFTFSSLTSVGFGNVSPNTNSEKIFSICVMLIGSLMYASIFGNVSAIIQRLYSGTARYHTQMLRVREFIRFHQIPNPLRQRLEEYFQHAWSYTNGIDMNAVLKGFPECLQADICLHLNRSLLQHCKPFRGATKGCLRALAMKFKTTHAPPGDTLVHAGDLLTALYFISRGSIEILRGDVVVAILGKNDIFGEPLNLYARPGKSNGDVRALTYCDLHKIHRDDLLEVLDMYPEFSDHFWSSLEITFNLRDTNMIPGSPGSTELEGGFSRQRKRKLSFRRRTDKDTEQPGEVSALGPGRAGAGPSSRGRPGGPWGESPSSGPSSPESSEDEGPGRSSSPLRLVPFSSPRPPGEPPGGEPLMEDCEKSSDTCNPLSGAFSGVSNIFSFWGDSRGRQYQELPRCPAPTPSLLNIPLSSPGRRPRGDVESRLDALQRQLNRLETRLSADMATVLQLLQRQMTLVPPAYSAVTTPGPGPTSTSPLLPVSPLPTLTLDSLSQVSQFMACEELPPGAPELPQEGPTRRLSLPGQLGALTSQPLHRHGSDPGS

Compound	hERG current change (%, negative = inhibition) at 10uM [%]
OCCNc1nc(N2CCOCC2)nc(N2CCOCC2)n1	2.77
Cc1cccc(NC(=O)NCc2ccc3c(c2)cc(C)n3C)c1	1.95
O=C(Nc1ncnc2sc3c(c12)CCCCC3)c1ccccc1	-4.62
COCCCNCC(=O)Nc1ccc(OC(F)(F)F)cc1.Cl	-30
CCOC(=O)C1CCCN(C(=O)c2cc3c(=O)n(C)c4ccccc4c3n2C)C1 (stereo not drawn)	-7.02
OC(CC#CCN1CCCCC1)(c1ccccc1)c1ccccc1	-16
O=C(CCCCCNC(=O)N1CCn2c1nc1ccccc12)NCc1ccc(Cl)cc1	2.07
CCc1sc(C(=O)NCc2cc(C)n(C)n2)cc1Br	-14.1
COc1ccc(-n2c(=S)[nH]c3cc(C(=O)Nc4ccc(OC)c(OC)c4)ccc3c2=O)cc1	5.74
O=C(CO)N/N=C/c1c2ccccc2cc2ccccc12	-5.89
COCCCNC(=S)Nc1cc(C)c(C)cc1C	12.1
CCOc1cc(-c2sc(Nc3ccccc3)n[n+]2C)ccc1OC.[Cl-]	-1.24
CCOC(=O)c1sc2nc(NC(=O)C(C)(C)C)sc2c1C	-11.7
O=c1cc(-c2ccc(C3CCCCC3)cc2)[nH][nH]1	11.2
Cc1ccsc1C(=O)Nc1ccc(O)c(-c2nc3ccccc3s2)c1	14.8
COc1ccc(CN2CCC(C(=O)c3ccc(F)cc3)CC2)cc1	-78.4
Cc1ccccc1-n1c(Cn2c(=O)sc3ccccc32)nnc1SCC(N)=O	9.72
Cc1ccc(C(=O)CCC(=O)Nc2ccccc2C)c(C)c1	18.6
Cc1ccccc1N1C(=O)C(Oc2ccc(Cl)cc2)C1CNC(C)(C)C (stereo not drawn)	-39.5

Compound	hERG current change (%, negative = inhibition) at 10uM [%]
COc1cccc(OCCSc2nc3ccccc3c(=O)[nH]2)c1	12.7
COc1ccc(N2CCN(C(=S)Nc3ccc(OC)cc3OC)CC2)cc1	14.2
COC(=O)CN(c1ccc(OC)cc1)S(=O)(=O)c1ccc(OC)c(OC)c1	-19.1
Cc1ccc(Cl)cc1NC(=S)N(CCN(C)C)Cc1cccs1	-0.292
CC(=O)c1cccc(OC(=O)c2ccc3c(=O)n4c(nc3c2)CCC4)c1	-19.7
Cn1nccc1C(=O)OCC(=O)Nc1nc(-c2ccccc2)cs1	-3.52
CC(=O)c1ccc(NC(=O)c2cc3ccccc3o2)cc1	9.19
Cc1ccc(S(=O)(=O)C2(C(=O)N3CCN(C4CCCCC4)CC3)CC2)cc1	-27.8
CC1CCN(CC(O)COc2ccc(-c3ccccc3)cc2)CC1.Cl (stereo not drawn)	-81
Cc1ccc(C(C)NC(=S)NC2CCCCC2)c(C)c1 (stereo not drawn)	4.2
COc1cccc(CN(C(=O)c2cccs2)C2CCS(=O)(=O)C2)c1 (stereo not drawn)	-15.7
CC(=O)O.CC(=O)Oc1ccc(-c2csc(Nc3ccc(S(N)(=O)=O)cc3)n2)cc1	9.81
O=C(Nc1cccc(CCc2ccccn2)c1)c1ccc(Cl)cc1	-25
Cc1ccc(NC(=O)Cn2cc([N+](=O)[O-])nc2C)cc1C	9.93
COc1ccc(/C=N/NC(=O)c2nnn(-c3nonc3N)c2CN(C)C2CCCCC2)cc1	10.1
C=CCn1c(-c2ccccc2)nc(=S)c2c1CC(C)(C)OC2	22.6
CCC(=O)Nc1nc(NCc2ccccc2OC)n(-c2ccccc2)n1	-23.9
COc1ccc(N(C(=O)c2snc(C(N)=O)c2N)C(C(=O)NC2CCCC2)c2cc(OC)ccc2OC)c(OC)c1 (stereo not drawn)	20.9
Cc1n[nH]c(=O)c2c(NC(=O)COC(=O)c3cc(F)cc(F)c3)oc(C)c12	-0.246

Compound	hERG current change (%, negative = inhibition) at 10uM [%]
COc1cc(CCCN2C(=S)NC[C@@H]2c2ccccc2)cc(OC)c1OC	-3.51
CCCC(=O)NCCc1ccc(F)cc1	8.94
CC1(C)Cc2nc(-c3ccccc3)nc(SCC(=O)N3CCCC3)c2CO1	-31.6
CCN(CC)c1ccc(N=Cc2c(O)n(-c3ccccc3C)c(=O)[nH]c2=O)cc1	-29.2
CCOC(=O)C1(CCOc2ccccc2)CCN(Cc2ccc3nonc3c2)CC1	-17
CSc1ccccc1NC(=O)Nc1cccc2ccccc12	16
COc1ccc(C2NC(=O)c3sc(=S)n(-c4ccccc4)c3N2)cc1 (stereo not drawn)	-19.1
Nn1c(SCC(=O)Nc2cc(C(F)(F)F)ccc2Cl)nncc1=O	-18.9
COc1ccc(NC(=O)CSc2nnc(NC(=O)C3CCC3)s2)c(OC)c1	12.6
COc1ccc(CNC(=O)CCC(=O)Nc2nnc(C(C)C)s2)cc1	-7.21
O=C(COC(=O)CCCC1=NS(=O)(=O)c2ccccc2N1)Nc1ccc(Br)cc1	5.63
Cc1ccccc1N1CCN(C2CCCN(C(=O)CCC(F)(F)F)C2)CC1 (stereo not drawn)	-47.3
CCOC(=O)c1ccc(Oc2nc(NC)nc(Nc3ccccc3)n2)cc1	-32.8
CCn1c(/C=C/c2ccc(O)cc2)nc2ccccc2c1=O	10.2
Cc1ccc(/C=N/NC(=O)COc2ccc(Cl)c(C)c2)o1	34.7
Cc1ccc(NC(=O)CCc2c(C)nn(-c3ccc(N4CCOCC4)nn3)c2C)cc1F	-10.2
COc1cc(/C=C/C(=O)OCC(=O)Nc2ccc(C)cc2[N+](=O)[O-])ccc1O	-20.5
O=C(NC(=S)Nc1ccc(Cc2ccncc2)cc1)c1ccccc1Cl	5.52
COc1ccc(N(C)C(=O)Cc2c(C(=O)O)n(C)c3ccccc23)cc1	27.3
